Reference: the antibiotic and cytotoxicity screens of Wong et al. (2023)
The other results are listed elsewhere or left out.

Columns and labels:
[1] = test system: HSkMC (human skeletal muscle cells); test: cytotoxicity call (relative viability < 0.9); details: 10 µM
[2] = test system: HepG2; test: cytotoxicity call (relative viability < 0.9); details: 10 µM
[3] = test system: S. aureus RN4220; test: growth inhibition call (relative growth <= 0.2); details: 50 µM

With C[C@@H](O)C#Cc1ccc2c(c1)O[C@H](CN(C)C(=O)C1CCCCC1)[C@@H](C)CN([C@@H](C)CO)S2(=O)=O the cytotoxicity call [1] was “inactive”, the cytotoxicity call [2] was “inactive” and the growth inhibition call [3] was “inactive”.
For CN(C)C(=O)c1cccc(-c2cccc(-c3nc(C(=O)NC4CCCCC4)cc4c3[C@H](CCO)N([S@@](=O)C(C)(C)C)C4)c2)c1, the cytotoxicity call [1] was “inactive”, the cytotoxicity call [2] was “inactive” and the growth inhibition call [3] was “inactive”.
C[C@H]1CN([C@@H](C)CO)C(=O)c2cccc(NC(=O)NC3CCCCC3)c2O[C@H]1CN(C)Cc1ccc(-c2ccccc2)cc1 was tested, and the cytotoxicity call [1] was “inactive”, the cytotoxicity call [2] was “inactive” and the growth inhibition call [3] was “inactive”.
For C[C@@H]1CN([C@H](C)CO)C(=O)c2cc(NC(=O)c3ccccc3)ccc2O[C@@H](C)CCCCO[C@H]1CN(C)Cc1ccc2c(c1)OCO2, the cytotoxicity call [1] was “inactive”, the cytotoxicity call [2] was “active” and the growth inhibition call [3] was “inactive”.
In the case of Cc1ccc(S(=O)(=O)Nc2ccc3c(c2)C(=O)N([C@@H](C)CO)C[C@H](C)[C@@H](CN(C)Cc2ccc(C(F)(F)F)cc2)OCCCC[C@@H](C)O3)cc1, the cytotoxicity call [1] is reported as “active”, the cytotoxicity call [2] is reported as “active” and the growth inhibition call [3] is reported as “inactive”.
In the case of C[C@@H]1CN([C@H](C)CO)C(=O)c2cc(NC(=O)Nc3cccc4ccccc34)ccc2O[C@H]1CN(C)CC1CCCCC1, the cytotoxicity call [1] is reported as “inactive”, the cytotoxicity call [2] is reported as “active” and the growth inhibition call [3] is reported as “inactive”.
With C[C@@H]1CN([C@H](C)CO)C(=O)c2cc(/C=C/c3ccccc3)cnc2O[C@@H]1CN(C)C(=O)c1cnccn1 the cytotoxicity call [1] was “inactive”, the cytotoxicity call [2] was “inactive” and the growth inhibition call [3] was “inactive”.
With C[C@@H]1CN([C@@H](C)CO)S(=O)(=O)c2ccc(C#C[C@@H](C)O)cc2O[C@@H]1CN(C)C(=O)c1ccccc1 the cytotoxicity call [1] was “inactive”, the cytotoxicity call [2] was “inactive” and the growth inhibition call [3] was “inactive”.
In the case of Cc1noc(C)c1NC(=O)Nc1ccc2c(c1)C(=O)N([C@@H](C)CO)C[C@@H](C)[C@@H](CN(C)S(=O)(=O)c1ccccc1)OCCCC[C@@H](C)O2, the cytotoxicity call [1] is reported as “inactive”, the cytotoxicity call [2] is reported as “inactive” and the growth inhibition call [3] is reported as “inactive”.
With Clc1ccc2c(c1)C(N1CCNCC1)=Nc1ccccc1O2 the cytotoxicity call [1] was “inactive”, the cytotoxicity call [2] was “active” and the growth inhibition call [3] was “inactive”.
CC(C)C#Cc1ccc2c(c1)O[C@@H](CN(C)C(=O)c1cnccn1)[C@@H](C)CN([C@@H](C)CO)S2(=O)=O was tested, and the cytotoxicity call [1] was “inactive”, the cytotoxicity call [2] was “inactive” and the growth inhibition call [3] was “inactive”.
For COc1ccc(NC(=O)Nc2ccc3c(c2)C(=O)N([C@@H](C)CO)C[C@H](C)[C@@H](CN(C)S(=O)(=O)c2ccccc2)OCCCC[C@@H](C)O3)cc1, the cytotoxicity call [1] was “inactive”, the cytotoxicity call [2] was “inactive” and the growth inhibition call [3] was “inactive”.
In the case of C[C@@H]1CN([C@H](C)CO[Si](C)(C)C(C)(C)C)C(=O)c2cc(NC(=O)C3CCCCC3)ccc2O[C@H]1CN(C)C(=O)c1ccc(Cl)cc1, the cytotoxicity call [1] is reported as “inactive”, the cytotoxicity call [2] is reported as “inactive” and the growth inhibition call [3] is reported as “inactive”.
In the case of Cc1noc(C)c1S(=O)(=O)N(C)C[C@@H]1Oc2ccc(NS(=O)(=O)c3cccs3)cc2CC(=O)N([C@@H](C)CO)C[C@@H]1C, the cytotoxicity call [1] is reported as “inactive”, the cytotoxicity call [2] is reported as “inactive” and the growth inhibition call [3] is reported as “inactive”.
In the case of COc1ccc(S(=O)(=O)N(C)C[C@@H]2Oc3ccc(NC(=O)c4ccncc4)cc3CC(=O)N([C@@H](C)CO)C[C@H]2C)cc1, the cytotoxicity call [1] is reported as “inactive”, the cytotoxicity call [2] is reported as “inactive” and the growth inhibition call [3] is reported as “inactive”.
With CNC(=O)Nc1ccc(C(=O)NC)cc1 the cytotoxicity call [1] was “inactive”, the cytotoxicity call [2] was “inactive” and the growth inhibition call [3] was “inactive”.
For C[C@H]1CCCCO[C@H](CN(C)Cc2ccc(C(=O)O)cc2)[C@@H](C)CN([C@@H](C)CO)C(=O)c2cc(NS(=O)(=O)c3ccccc3)ccc2O1, the cytotoxicity call [1] was “inactive”, the cytotoxicity call [2] was “inactive” and the growth inhibition call [3] was “inactive”.
For C[C@H](O)C#Cc1ccc2c(c1)O[C@@H](CN(C)C(=O)Cc1ccccn1)[C@@H](C)CN([C@H](C)CO)S2(=O)=O, the cytotoxicity call [1] was “inactive”, the cytotoxicity call [2] was “inactive” and the growth inhibition call [3] was “inactive”.
In the case of CN[C@H](CC(=O)O)C(=O)O, the cytotoxicity call [1] is reported as “inactive”, the cytotoxicity call [2] is reported as “inactive” and the growth inhibition call [3] is reported as “inactive”.
With COCCOC(=O)N1C(=O)[C@@]2(c3cc(C#CCNC(N)=O)ccc31)[C@H](C(=O)N1CCc3cc(OC)c(OC)cc3C1)[C@H]1C(=O)O[C@H](c3ccccc3)[C@H](c3ccccc3)N1[C@@H]2c1ccc(OCCO)cc1 the cytotoxicity call [1] was “inactive”, the cytotoxicity call [2] was “inactive” and the growth inhibition call [3] was “inactive”.
With COc1ccc(CN(C)C[C@@H]2OCCCC[C@@H](C)Oc3ccc(NS(=O)(=O)c4c(C)noc4C)cc3C(=O)N([C@H](C)CO)C[C@@H]2C)cc1 the cytotoxicity call [1] was “inactive”, the cytotoxicity call [2] was “inactive” and the growth inhibition call [3] was “inactive”.
In the case of CC(C)(C)NCC(O)COc1ccccc1C1CCCC1.O=S(=O)(O)O (configuration not stated), the cytotoxicity call [1] is reported as “inactive”, the cytotoxicity call [2] is reported as “active” and the growth inhibition call [3] is reported as “inactive”.
For O=C(C[C@@H]1CC[C@H]2[C@@H](COC[C@@H](O)CN2Cc2ccccc2F)O1)N[C@@H]1CCN(Cc2ccccc2)C1, the cytotoxicity call [1] was “inactive”, the cytotoxicity call [2] was “inactive” and the growth inhibition call [3] was “inactive”.
For CCCC#Cc1ccc2c(c1)O[C@H](CN(C)S(=O)(=O)c1cccc(F)c1)[C@H](C)CN([C@@H](C)CO)S2(=O)=O, the cytotoxicity call [1] was “inactive”, the cytotoxicity call [2] was “inactive” and the growth inhibition call [3] was “inactive”.
